Results as given in PubChem BioAssay (Tox21).
“And” between values parts separate entries of the source, which are not always exact repeats. Equal values may be shown once. This list was built around the results that the source calls inconclusive (neither active nor inactive); the mix of calls is not that of the screen. Potencies beside an inconclusive call are fits to weak or partial responses and may not hold up. Where a structure was tested more than once in an assay, its records may differ in their call. The source made the active and inactive calls. The call rests on the fitted dose curve; in most records, active means well fitted curve in the direction sought with a large enough effect in the repeat runs; inconclusive means weak or mixed curves; inactive means no such curve, though single readings can be large; an effect the other way counts as inactive or inconclusive.

Molecular target: Cytochrome P450 1A2 (Homo sapiens) (UniProt P05177)
UniProt P05177, sequence (P05177 whole entry, looked up): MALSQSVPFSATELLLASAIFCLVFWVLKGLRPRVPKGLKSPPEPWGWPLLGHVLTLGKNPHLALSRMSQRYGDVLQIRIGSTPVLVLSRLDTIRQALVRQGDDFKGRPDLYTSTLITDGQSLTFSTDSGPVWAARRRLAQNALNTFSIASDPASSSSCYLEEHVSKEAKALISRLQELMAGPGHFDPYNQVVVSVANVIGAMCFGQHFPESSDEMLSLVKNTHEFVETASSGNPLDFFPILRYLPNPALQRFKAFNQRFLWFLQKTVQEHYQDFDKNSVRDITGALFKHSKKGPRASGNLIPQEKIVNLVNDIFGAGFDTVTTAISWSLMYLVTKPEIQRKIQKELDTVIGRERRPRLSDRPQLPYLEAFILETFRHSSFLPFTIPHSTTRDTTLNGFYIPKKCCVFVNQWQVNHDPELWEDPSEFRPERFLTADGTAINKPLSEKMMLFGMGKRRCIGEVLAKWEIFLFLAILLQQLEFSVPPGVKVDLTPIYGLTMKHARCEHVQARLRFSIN
Assay: Cytochrome P450 Family 1 Subfamily A Member 2 (CYP1A2) small molecule antagonists: luciferase reporter qHTS assay (AID 1671199)
Conditions: P450-Glo CYP1A2 enzyme, luciferin luminescence, 1 h; series mostly up to 115 µM
Outline: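 Enzymatic CYP1A2 assay, human, luminescent: 10 min compound–enzyme–substrate preincubation, 1 h NADPH-dependent turnover, 20 min detection step, room temperature throughout. Reduced light indicates lower CYP1A2 activity.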
Further: nearly all actives have a fitted effect of over 50% in size.
On the % scale 0 is the no-effect control and ±100 the full control effect; potency means the concentration at half of the fitted maximal effect; tags describe the fitted curve by direction and shape.

SMILES | Potency | activity change, negative = inhibition
C1CCCC1 | inconclusive: 39.1 µM [inhibitor, partial curve] | –
CCCCOC(=O)C(C)CC (centres undefined) | inconclusive: 35.6 µM [inhibitor, partial curve] | –
CCOC(=O)c1ccccc1C | inconclusive: 39.9 µM [inhibitor, partial curve] | –
Cn1c(N)nc2nc[nH]c2c1=O | inconclusive: 62.6 µM [inhibitor, partial curve] | –
COC(=O)c1cccc(C(=O)OC)c1 | active: 12.4 µM and active: 11.2 µM | –
CC(=O)OCC[N+](C)(C)C | active: 24.5 µM | –
CC(=O)OCC(COC(C)=O)OC(C)=O | active: 62.5 µM and inactive | –
O=C(OCc1ccccc1)c1ccccc1 | active: 31.8 µM and active: 35.6 µM and active: 13.8 µM | –
COC(=O)CCCCC(=O)OC | inconclusive: 80.2 µM [inhibitor, single point] and inactive | –
C=CC(=O)NC(C)(C)CS(=O)(=O)O | inconclusive: 69.5 µM [inhibitor] and inactive and inconclusive: 39.9 µM [inhibitor, partial curve] | –
CCCCCCCC(=O)OC | inactive | –
CC(NN)c1ccccc1 (centres undefined) | – | inactive: 1.21% [at 23.6 µM]
Nc1ncnc2c1ncn2[C@@H]1O[C@H](COP(=O)(O)O)[C@@H](O)[C@H]1O | inconclusive: 21.9 µM [inhibitor, partial curve] | –
CC1(C)S[C@@H]2[C@H](NC(=O)[C@H](N)c3ccccc3)C(=O)N2[C@H]1C(=O)O | inconclusive: 30.9 µM [inhibitor, partial curve] | –
CN(N=O)C(=O)N[C@@H]1[C@@H](O)[C@H](O)[C@@H](CO)O[C@@H]1O | inactive | –

Molecular target: Voltage-gated inwardly rectifying potassium channel KCNH2 (Homo sapiens) (UniProt Q12809)
UniProt Q12809, sequence (Q12809 whole entry, looked up): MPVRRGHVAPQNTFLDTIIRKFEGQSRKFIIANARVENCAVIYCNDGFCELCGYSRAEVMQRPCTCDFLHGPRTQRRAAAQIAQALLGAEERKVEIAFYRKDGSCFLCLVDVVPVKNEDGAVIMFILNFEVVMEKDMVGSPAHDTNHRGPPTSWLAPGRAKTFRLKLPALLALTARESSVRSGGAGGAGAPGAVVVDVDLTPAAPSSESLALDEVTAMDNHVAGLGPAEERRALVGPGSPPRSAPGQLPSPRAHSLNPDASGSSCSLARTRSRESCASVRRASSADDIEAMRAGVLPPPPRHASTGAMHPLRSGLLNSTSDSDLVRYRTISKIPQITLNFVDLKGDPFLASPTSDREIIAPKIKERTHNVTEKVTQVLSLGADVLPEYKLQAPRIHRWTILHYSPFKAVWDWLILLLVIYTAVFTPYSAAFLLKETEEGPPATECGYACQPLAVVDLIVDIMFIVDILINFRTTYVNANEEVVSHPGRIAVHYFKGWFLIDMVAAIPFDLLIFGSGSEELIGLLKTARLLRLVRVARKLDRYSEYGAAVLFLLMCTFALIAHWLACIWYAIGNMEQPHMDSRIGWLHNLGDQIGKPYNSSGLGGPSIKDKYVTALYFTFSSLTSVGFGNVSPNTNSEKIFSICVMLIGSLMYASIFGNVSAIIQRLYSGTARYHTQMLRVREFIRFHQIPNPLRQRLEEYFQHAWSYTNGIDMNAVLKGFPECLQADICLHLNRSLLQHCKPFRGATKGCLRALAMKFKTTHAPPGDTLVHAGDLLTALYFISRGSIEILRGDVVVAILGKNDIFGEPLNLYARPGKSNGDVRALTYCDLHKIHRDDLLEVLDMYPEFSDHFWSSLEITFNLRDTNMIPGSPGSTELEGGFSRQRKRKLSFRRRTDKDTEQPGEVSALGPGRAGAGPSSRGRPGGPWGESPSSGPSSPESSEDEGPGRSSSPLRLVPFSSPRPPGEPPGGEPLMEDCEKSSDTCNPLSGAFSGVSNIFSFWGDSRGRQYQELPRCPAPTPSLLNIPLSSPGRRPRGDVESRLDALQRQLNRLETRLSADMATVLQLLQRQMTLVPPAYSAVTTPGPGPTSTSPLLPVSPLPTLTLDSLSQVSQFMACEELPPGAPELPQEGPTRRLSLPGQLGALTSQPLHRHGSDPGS
Assay: Human Ether-a-go-go-Related Gene (hERG) channel small molecule antagonists: fluorescence cell-based qHTS assay (AID 1671200);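 on activity change, negative = inhibition: hERG-expressing U2OS cells given a thallium stimulus after FluxOR II dye loading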
Conditions: hERG-U2OS cells, FluxOR thallium flux fluorescence; series mostly up to 76.8 µM
Outline: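 Quantitative HTS in hERG-U2OS cells: thallium entry through the channel reports activity, read as continuous 480/540 nm fluorescence over 2 min after stimulus addition.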

SMILES | Potency
O=C1OC[C@H](Cc2cccc(O)c2)[C@H]1Cc1cccc(O)c1 | inactive
O=C(OCc1ccccc1)c1ccccc1 | inconclusive: 49.1 µM [inhibitor, single point]
O=C(/C=C/c1ccccc1)OCCc1ccccc1 | active: 49 µM

Molecular target: Cytochrome P450 3A4 (Homo sapiens) (UniProt P08684)
UniProt P08684, sequence (P08684 whole entry, looked up): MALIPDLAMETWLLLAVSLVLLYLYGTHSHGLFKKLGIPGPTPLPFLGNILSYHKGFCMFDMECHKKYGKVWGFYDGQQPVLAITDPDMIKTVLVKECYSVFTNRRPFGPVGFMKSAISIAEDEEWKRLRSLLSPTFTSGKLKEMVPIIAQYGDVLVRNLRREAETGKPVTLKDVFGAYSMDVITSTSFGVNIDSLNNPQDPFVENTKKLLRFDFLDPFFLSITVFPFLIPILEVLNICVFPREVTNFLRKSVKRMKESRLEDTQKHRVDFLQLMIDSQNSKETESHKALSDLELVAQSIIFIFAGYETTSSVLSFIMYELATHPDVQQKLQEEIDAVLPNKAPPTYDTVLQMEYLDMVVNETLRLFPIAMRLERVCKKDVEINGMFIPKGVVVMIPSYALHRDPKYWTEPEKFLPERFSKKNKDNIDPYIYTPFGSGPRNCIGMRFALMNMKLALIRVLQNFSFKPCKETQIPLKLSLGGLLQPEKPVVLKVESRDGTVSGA
Assay: Cytochrome P450 Family 3 Subfamily A Member 4 (CYP3A4) small molecule antagonists: luciferase reporter qHTS assay (AID 1671201)
Conditions: P450-Glo CYP3A4 enzyme, luciferin luminescence, 1 h; series mostly up to 115 µM
Outline: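 Inhibition of CYP3A4 is measured as loss of light: the enzyme converts a proluciferin substrate to luciferin, detected luminescently. Reaction ran 1 h at room temperature with NADPH regeneration after a 10 min compound preincubation.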

SMILES | Potency
CC1CN(c2ccccc2)NC1=O (centres undefined) | inconclusive: 35.6 µM [inhibitor, partial curve]
CCOC(=O)c1ccccc1C | inactive
CC1=C(C=O)C(C)(C)CCC1 | inconclusive: 71 µM [inhibitor, partial curve]
Cn1c(N)nc2nc[nH]c2c1=O | inconclusive: 62.6 µM [inhibitor, partial curve]
Cc1ccccc1N=C(N)Nc1ccccc1C | inconclusive: 12.4 µM [inhibitor, full curve]
Cc1cccc(C)c1NC(=O)c1cc(S(N)(=O)=O)c(Cl)cc1O | inactive
CCCC(=O)C(C)=O | inconclusive: 35.6 µM [inhibitor, partial curve]
CCCCC(CC)COC(=O)CCCCC(=O)OCc1ccccc1 (centres undefined) | inconclusive: 35.6 µM [inhibitor, partial curve]
C=CC(=O)NC(C)(C)CS(=O)(=O)O | inactive and inconclusive: 57.3 µM [inhibitor, partial curve]
CC1(C)S[C@@H]2[C@H](NC(=O)[C@H](N)c3ccccc3)C(=O)N2[C@H]1C(=O)O | inactive
C=C(C)[C@@H]1CCC2=CCC[C@@H](C)[C@]2(C)C1 | active: 71 µM
